Measurements from paper PMC2997436 (Journal of medicinal chemistry, 2010).

Key:
rat α4β2 nAChR = rat α4β2 nAChR (Rattus norvegicus, UniProt P09483+P12390); type: binding; conditions: upto 100 µM concentrations
α7 nAChR = α7 nAChR (Rattus norvegicus, UniProt Q05941); type: binding

| Structure (SMILES) | affinity for α4β2 nAChR (in words) (rat α4β2 nAChR) | affinity for α7 nAChR (in words) (α7 nAChR) |
| --- | --- | --- |
| CN1C2CCC1CC(N1C(=O)Cc3ccccc31)C2 (stereo not shown) [Compound 4] | no affinity | no affinity |
| CN1C2CCCC1CC(N1C(=O)Cc3ccccc31)C2 (stereo not shown) [Compound 5, 1-(9-methyl-9-azabicyclo[3.3.1]non-3-yl)-1,3-dihydro-2H-indol-2-one] | no affinity | no affinity |
